{
  "source": "the antibiotic and cytotoxicity screens of Wong et al. (2023)",
  "note": "Some of the results follow.",
  "data": [
    {"system": "HepG2", "experiment": "cytotoxicity call (relative viability < 0.9)", "details": "10 µM", "values": [
      {"smiles": "CC(C)c1ccc(/C=C2\\CSc3ccccc3C2=O)cc1", "cytotoxicity call": "inactive"},
      {"smiles": "CC1(C)[C@@H](OC(=O)CCC(=O)O)CC[C@@]2(C)[C@H]1CC[C@]1(C)[C@H]2C(=O)C=C2[C@@H]3C[C@@](C)(C(=O)O)CC[C@]3(C)CC[C@]21C", "cytotoxicity call": "inactive"},
      {"smiles": "Cc1noc(C)c1NC(=O)Nc1cccc2c1O[C@H](CN(C)Cc1ccc(-c3ccccc3)cc1)[C@@H](C)CN([C@H](C)CO)C2=O", "cytotoxicity call": "inactive"},
      {"smiles": "COc1ccc2c3c(n(c2c1)C)[C@H](CO)N(Cc1ccccc1)C[C@]13CCN(CC1)C(=O)Nc1cccc(c1)F", "cytotoxicity call": "inactive"},
      {"smiles": "CNC[C@H]1OCCCC[C@@H](C)Oc2ccc(NC(=O)Nc3ccc(C(F)(F)F)cc3)cc2C(=O)N([C@H](C)CO)C[C@@H]1C", "cytotoxicity call": "inactive"},
      {"smiles": "COc1ccc(NC(=O)Nc2ccc3c(c2)C(=O)N([C@H](C)CO)C[C@@H](C)[C@H](CN(C)S(=O)(=O)c2cccs2)OCCCC[C@@H](C)O3)cc1", "cytotoxicity call": "inactive"},
      {"smiles": "Cc1ccc(S(=O)(=O)N(C)C[C@H]2Oc3c(NC(=O)c4cc(C)nn4C)cccc3C(=O)N([C@H](C)CO)C[C@H]2C)cc1", "cytotoxicity call": "inactive"},
      {"smiles": "C[C@@H]1CN([C@H](C)CO)C(=O)CCCn2cc(nn2)CO[C@H]1CN(C)Cc1ccc(C(=O)Nc2ccccc2N)cc1", "cytotoxicity call": "inactive"},
      {"smiles": "C=C(C)C1COc2cc3oc(=O)ccc3cc2O1", "note": "(stereo unspecified)", "cytotoxicity call": "inactive"},
      {"smiles": "CN(C)CCCNC(=O)C[C@@H]1CC[C@H]2[C@@H](COC[C@@H](O)CN2S(=O)(=O)c2ccc(Cl)cc2)O1", "cytotoxicity call": "inactive"},
      {"smiles": "C[C@H]1CN([C@@H](C)CO)S(=O)(=O)c2ccc(-c3ccncc3)cc2O[C@H]1CN(C)Cc1ccc(Oc2ccccc2)cc1", "cytotoxicity call": "inactive"}
    ]}
  ]
}
